In patent US11807693B2 (priority 2014, dated 2023):
At least one structure is not confirmed: it was looked up by name or label, or the drawing left a doubt. Starred links: 1 amine or outer side, 2 acyl side, 3 side chain; linkers in the order of their positions; H or OH if unused. Non-standard residues stand in square brackets, D forms with d. Residues, ends and D or L forms follow the SMILES beside them. *: point of attachment. Oic = O=C(O)[C@@H]1C[C@@H]2CCCC[C@@H]2N1; Phe(4-Cl) = N[C@@H](Cc1ccc(Cl)cc1)C(=O)O; γGlu = O=C(O)[C@H](CCC(=O)[*:2])N[*:1]; NMeR = CN[C@@H](CCCNC(=N)N)C(=O)O; Tridecanoyl = CCCCCCCCCCCCC(=O)*; hArg = N=C(N)NCCCC[C@H](N)C(=O)O; Cha = N[C@@H](CC1CCCCC1)C(=O)O; αMeP = C[C@@]1(C(=O)O)CCCN1; β3hV = CC(C)[C@H](N)CC(=O)O; Pip = O=C(O)[C@@H]1CCCCN1; Nle = CCCC[C@H](N)C(=O)O; Orn = NCCC[C@H](N)C(=O)O; AEEA = NCCOCCOCC(=O)O; Aib = CC(C)(N)C(=O)O

What was measured:
human APJ receptor = target: T1, human APJ receptor (Homo sapiens, UniProt P35414); assay: [35S] GTPγS assay, human APJ receptor; format: biochemical
T1 construct: expressed in transfected cells
T1 sequence (P35414 1-380): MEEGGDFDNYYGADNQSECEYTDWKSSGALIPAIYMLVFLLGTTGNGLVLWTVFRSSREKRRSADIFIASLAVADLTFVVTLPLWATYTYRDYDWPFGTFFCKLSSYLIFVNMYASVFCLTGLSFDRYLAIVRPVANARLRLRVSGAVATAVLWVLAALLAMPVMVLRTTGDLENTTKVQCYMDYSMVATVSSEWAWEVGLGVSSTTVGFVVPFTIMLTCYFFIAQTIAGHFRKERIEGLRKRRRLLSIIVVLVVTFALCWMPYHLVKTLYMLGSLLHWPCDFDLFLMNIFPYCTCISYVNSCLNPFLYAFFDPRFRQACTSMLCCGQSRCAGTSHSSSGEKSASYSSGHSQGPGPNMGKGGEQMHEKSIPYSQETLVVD

rat APJ receptor = target: T2, rat APJ receptor (Rattus norvegicus, UniProt Q9JHG3); assay: [35S] GTPγS assay, rat APJ receptor; format: biochemical
T2 construct: expressed in transfected cells
T2 sequence (Q9JHG3 1-377): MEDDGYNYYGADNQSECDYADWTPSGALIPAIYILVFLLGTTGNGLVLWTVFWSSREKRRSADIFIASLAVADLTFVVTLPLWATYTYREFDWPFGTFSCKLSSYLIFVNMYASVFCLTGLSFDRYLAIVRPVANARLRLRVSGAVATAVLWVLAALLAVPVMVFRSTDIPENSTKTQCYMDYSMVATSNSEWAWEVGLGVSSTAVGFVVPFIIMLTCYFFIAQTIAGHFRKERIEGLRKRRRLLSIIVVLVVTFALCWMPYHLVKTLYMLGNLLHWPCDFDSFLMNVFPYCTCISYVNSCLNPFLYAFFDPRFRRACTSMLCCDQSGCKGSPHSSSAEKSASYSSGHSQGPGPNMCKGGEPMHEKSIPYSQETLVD
Description: The membranes were incubated with modified peptides in the assay buffer. […] Bound [^35S] GTPγS was separated from free radiolabel by filtration. The filter bound radioactivity was determined by liquid scintillation counting.

SMILES | EC50 (rat APJ receptor; Table 16) [nM] | also measured
CCCCCCCCCCCCC(=O)N[C@@H](CCC(=O)NCCOCCOCC(=O)NCCOCCOCC(=O)N[C@@H](CCCN)C(=O)N[C@@H](Cc1ccccc1)C(=O)N[C@@H](CCCCNC(=N)N)C(=O)N[C@@H](CCCCNC(=N)N)C(=O)N[C@H](CC(=O)N[C@@H](CCCCNC(=N)N)C(=O)N1CCC[C@H]1C(=O)N[C@@H](CCCCNC(=N)N)C(=O)N[C@@H](CC1CCCCC1)C(=O)N[C@@H](CO)C(=O)N[C@@H](Cc1c[nH]cn1)C(=O)N[C@@H](CCCCN)C(=O)NCC(=O)N1[C@H](C(=O)N[C@@H](CCCC)C(=O)N2CCC[C@H]2C(=O)N[C@@H](Cc2ccc(Cl)cc2)C(=O)O)C[C@@H]2CCCC[C@@H]21)C(C)C)C(=O)O [compound 307] ({Tridecanoyl-γGlu-AEEA-AEEA}-[Orn]F[hArg][hArg][β3hV][hArg]P[hArg][Cha]SHKG[Oic][Nle]P[Phe(4-Cl)]-OH) | – | EC50 (human APJ receptor; human APJ receptor): 0.305 nM
CCCCCCCCCCCCC(=O)N[C@@H](CCC(=O)NCCOCCOCC(=O)NCCOCCOCC(=O)N[C@@H](CCC(N)=O)C(=O)N[C@@H](CCCNC(=N)N)C(=O)N1CCC[C@H]1C(=O)N(C)[C@@H](CCCNC(=N)N)C(=O)N[C@H](CC(=O)N[C@@H](CO)C(=O)N[C@@H](Cc1c[nH]cn1)C(=O)N[C@@H](CCCCN)C(=O)NCC(=O)N1[C@H](C(=O)N[C@@H](CCCC)C(=O)N2CCC[C@H]2C(=O)N[C@@H](Cc2ccc(Cl)cc2)C(=O)O)C[C@@H]2CCCC[C@@H]21)C(C)C)C(=O)O [compound 391] ({Tridecanoyl-γGlu-AEEA-AEEA}-QRP[NMeR][β3hV]SHKG[Oic][Nle]P[Phe(4-Cl)]-OH) | 1.5 | –
CCCCCCCCCCCCC(=O)N[C@@H](CCC(=O)NCCOCCOCC(=O)NCCOCCOCC(=O)N[C@H](CC(=O)N[C@@H](CCCNC(=N)N)C(=O)N1CCC[C@H]1C(=O)N(C)[C@@H](CCCNC(=N)N)C(=O)N[C@@H](CC1CCCCC1)C(=O)N[C@@H](CO)C(=O)N[C@@H](Cc1c[nH]cn1)C(=O)N[C@@H](CCCCN)C(=O)NCC(=O)N1[C@H](C(=O)N[C@@H](CCCC)C(=O)N2CCC[C@H]2C(=O)N[C@@H](Cc2ccc(Cl)cc2)C(=O)O)C[C@@H]2CCCC[C@@H]21)C(C)C)C(=O)O [compound 393] ({Tridecanoyl-γGlu-AEEA-AEEA}-[β3hV]RP[NMeR][Cha]SHKG[Oic][Nle]P[Phe(4-Cl)]-OH) | – | EC50 (rat APJ receptor; rat APJ receptor): 2.67 nM
CCCCCCCCCCCCC(=O)N[C@@H](CCC(=O)NCCOCCOCC(=O)NCCOCCOCC(=O)N[C@@H](CCC(N)=O)C(=O)N[C@@H](CCCNC(=N)N)C(=O)N1CCC[C@H]1C(=O)N(C)[C@@H](CCCNC(=N)N)C(=O)N[C@H](CC(=O)N[C@@H](CO)C(=O)N[C@@H](Cc1c[nH]cn1)C(=O)N[C@@H](CCCCN)C(=O)NCC(=O)N1CCC[C@H]1C(=O)N[C@@H](CCCC)C(=O)N1CCC[C@H]1C(=O)N[C@@H](Cc1ccc(Cl)cc1)C(=O)O)C(C)C)C(=O)O [compound 458] ({Tridecanoyl-γGlu-AEEA-AEEA}-QRP[NMeR][β3hV]SHKGP[Nle]P[Phe(4-Cl)]-OH) | 0.119 | –
CCCCCCCCCCCCC(=O)N[C@@H](CCC(=O)NCCOCCOCC(=O)NCCOCCOCC(=O)N[C@@H](CCC(N)=O)C(=O)N[C@@H](CCCNC(=N)N)C(=O)N1CCC[C@H]1C(=O)N(C)[C@@H](CCCNC(=N)N)C(=O)N[C@@H](CC(C)C)C(=O)N[C@@H](CO)C(=O)N[C@H](CN[C@@H](CCCCN)C(=O)NCC(=O)N1CCC[C@H]1C(=O)N[C@@H](CCCC)C(=O)N1CCC[C@H]1C(=O)N[C@@H](Cc1ccc(Cl)cc1)C(=O)O)Cc1c[nH]cn1)C(=O)O [compound 469] | 1.33 | EC50 (human APJ receptor; Table 16): 0.177 nM
CCCCCCCCCCCCC(=O)N[C@@H](CCC(=O)NCCOCCOCC(=O)NCCOCCOCC(=O)N[C@H](CCC(N)=O)C(=O)N[C@@H](CCCNC(=N)N)C(=O)N1CCC[C@@]1(C)C(=O)N[C@@H](CCCCNC(=N)N)C(=O)N[C@H](CC(=O)N[C@@H](CO)C(=O)N[C@@H](Cc1c[nH]cn1)C(=O)N[C@@H](CCCCN)C(=O)NCC(=O)N1[C@H](C(=O)N[C@@H](CCCC)C(=O)N2CCC[C@@]2(C)C(=O)N[C@@H](Cc2ccc(Cl)cc2)C(=O)O)C[C@@H]2CCCC[C@@H]21)C(C)C)C(=O)O [compound 502] ({Tridecanoyl-γGlu-AEEA-AEEA}-[dQ]R[αMeP][hArg][β3hV]SHKG[Oic][Nle][αMeP][Phe(4-Cl)]-OH) | 4.81 | –
CCCCCCCCCCCCC(=O)N[C@@H](CCC(=O)NCCOCCOCC(=O)NCCOCCOCC(=O)N[C@H](CCC(N)=O)C(=O)N[C@@H](CCCNC(=N)N)C(=O)N1CCC[C@@]1(C)C(=O)N[C@@H](CCCCNC(=N)N)C(=O)N[C@H](CC(=O)N[C@@H](CO)C(=O)N[C@@H](Cc1c[nH]cn1)C(=O)N[C@@H](CCCCN)C(=O)NCC(=O)N1CCCC[C@H]1C(=O)N[C@@H](CCCC)C(=O)N1CCC[C@@]1(C)C(=O)N[C@@H](Cc1ccc(Cl)cc1)C(=O)O)C(C)C)C(=O)O [compound 503] ({Tridecanoyl-γGlu-AEEA-AEEA}-[dQ]R[αMeP][hArg][β3hV]SHKG[Pip][Nle][αMeP][Phe(4-Cl)]-OH) | 2.12 | –
CCCCCCCCCCCCC(=O)N[C@@H](CCC(=O)NCCOCCOCC(=O)NCCOCCOCC(=O)N[C@H](CCC(N)=O)C(=O)N[C@@H](CCCNC(=N)N)C(=O)N1CCCC[C@H]1C(=O)N[C@@H](CCCCNC(=N)N)C(=O)N[C@H](CC(=O)N[C@@H](CO)C(=O)N[C@@H](Cc1c[nH]cn1)C(=O)N[C@@H](CCCCN)C(=O)NCC(=O)N1[C@H](C(=O)N[C@@H](CCCC)C(=O)NC(C)(C)C(=O)N[C@@H](Cc2ccc(Cl)cc2)C(=O)O)C[C@@H]2CCCC[C@@H]21)C(C)C)C(=O)O [compound 521] ({Tridecanoyl-γGlu-AEEA-AEEA}-[dQ]R[Pip][hArg][β3hV]SHKG[Oic][Nle][Aib][Phe(4-Cl)]-OH) | 3.21 | –
CCCCCCCCCCCCC(=O)N[C@@H](CCC(=O)NCCOCCOCC(=O)NCCOCCOCC(=O)N[C@H](CCC(N)=O)C(=O)N[C@@H](CCCNC(=N)N)C(=O)N1CCC[C@@]1(C)C(=O)N[C@@H](CCCC)C(=O)N[C@H](CC(=O)N[C@@H](CO)C(=O)N[C@@H](Cc1c[nH]cn1)C(=O)N[C@@H](CCCCN)C(=O)NCC(=O)N1[C@H](C(=O)N[C@@H](CCCC)C(=O)N2CCC[C@@]2(C)C(=O)N[C@@H](Cc2ccc(Cl)cc2)C(=O)O)C[C@@H]2CCCC[C@@H]21)C(C)C)C(=O)O [compound 523] ({Tridecanoyl-γGlu-AEEA-AEEA}-[dQ]R[αMeP][Nle][β3hV]SHKG[Oic][Nle][αMeP][Phe(4-Cl)]-OH) | – | EC50 (human APJ receptor; Table 16): 25.6 nM
